Measurements reported in PubChem BioAssay (NCI).
Several values for one entry are separate records, joined by “and”; a condition that tells them apart may be missing. Equal values may be shown once.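 Each compound was tested at five concentrations against cells in 96-well plates for 48 hours. GI50 = concentration required for 50% inhibition of growth. TGI denotes the concentration required for complete inhibition of growth.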

tested on: NCI-H322M lung; assay: NCI-60 cell line screen, 48 h

Structure (SMILES)	TGI	GI50
O=C1Cc2c(-c3ccccc3)cc(-c3ccccc3)nc2-c2ccccc2N1	29 µM	
O=C1C=CC2(CCCCCCC2=O)CC1 (stereo unspecified)	> 100 µM	
O=S(=O)(O)c1ccc2c(N=Nc3cccc4ccccc34)c(O)ccc2c1	> 100 µM	
Cc1noc2cccc(O)c12	> 100 µM	
CCOC(=O)c1c(N2CCCC2)[nH]c(=O)c(C(c2c(O)c(C(=O)OCC)c(N3CCCC3)[nH]c2=O)C(C)C)c1O	> 100 µM	
CCO/C(O)=C(/C(=N)N1CCOCC1)C(=O)Nc1cccc(C(F)(F)F)c1	> 100 µM	
Cc1c(C)c2c(c(C)c1OC(=O)CCC(=O)[O-])CCC(C)(CCCCCCCCCCC[P+](c1ccccc1)(c1ccccc1)c1ccccc1)O2 (stereo unspecified)	1.17 µM	0.309 µM
CCOC(=O)Oc1cc2ccsc2c2c1c1ccccc1n2C(=O)OCC	> 100 µM	
COC(=O)C(=O)C(CC(=O)Nc1cc(Cl)ccc1Cl)C(=O)OC (stereo unspecified)	> 100 µM	
CCCCCCCCCCC(=O)CCCCCCC(=O)O	59.6 µM	
CCCNC1=C2C[C@@H](C)C[C@@H](OC)[C@@H](OC(=O)CCCN)[C@H](C)/C=C(\C)[C@@H](OC(N)=O)[C@H](OC)/C=C\C=C(/C)C(=O)NC(=CC1=O)C2=O	31.8 µM	
O/N=C1/CCC/C1=C\c1ccccc1	> 100 µM	
N#CCc1c(F)c(F)c(F)c(F)c1F	> 100 µM	
Nc1nc(Cl)cc(NCC2(CO)CCCCC2)n1	> 100 µM	
Cc1ccc(S(=O)(=O)NC(=O)Nc2c(S(N)(=O)=O)cc(S(N)(=O)=O)c(Cl)c2Cl)cc1	> 100 µM	
C[C@@H](C1CC[C@H]2[C@@H]3[C@@H]4O[C@@H]4[C@@]4(O)CC=CC(=O)[C@]4(C)[C@H]3C[C@H](O)[C@]12C)[C@H]1C[C@]2(C)O[C@]2(C)C(=O)O1 (stereo partly specified)	> 100 µM	
N#C/C(=C\c1ccc(O)c(O)c1)C(=O)NCc1ccc(C(F)(F)F)cc1	52.7 µM	15.1 µM
N#CCCN(CCC#N)c1ccc(/C=C(/NC(=O)c2cc([N+](=O)[O-])ccc2Cl)C(=O)N=[N+]=[N-])cc1	> 100 µM	
COc1ccc2c(c1)CC[C@@H]1[C@@H]2CC[C@]2(C)/C(=N/OCCN3CCCC3)CC[C@@H]12	9.69 µM	
O=c1cc(-c2ccc(Cl)cc2)[nH]c2ccccc12	> 100 µM	> 100 µM
CC(C)N(C(=O)C12C3C4C1C1C2C3C41C(=O)C(C)(C)C)C(C)C (stereo unspecified)	> 100 µM	
CCN(CC)CCNc1c2ccccc2nc2cccc([N+](=O)[O-])c12	0.0558 µM and 0.252 µM	0.0169 µM
NC(CCSCC(F)(F)F)C(=O)O (stereo unspecified)	> 100 µM	
CCOC(=O)C1(CC(=O)O)CCCC1=O (stereo unspecified)	> 100 µM	

Structure (SMILES)	TGI	GI50
COc1ccccc1N1CCN(CCCCNC(=O)c2ccc([N+](=O)[O-])o2)CC1	23.1 µM	
Cc1cc(N(CCC#N)S(=O)(=O)c2ccccc2)ccc1C=Nc1cccc(C(=O)O)c1	> 100 µM	
COc1ccc(/C=C2/N=C(N/N=C\C(O)C(O)C(O)CO)NC2=O)cc1 (stereo unspecified)	> 100 µM	
CCCC(=O)OCC1OC2OC(C)(C)OC2C2OC(C)(C)OC12 (stereo unspecified)	> 100 µM	
O=C([CH-]C(=O)c1ccccc1)c1ccccc1.[C-]#[O+].[C-]#[O+].[Ir]	35.7 µM	0.581 µM
N#C/C(=C\c1ccc(O)c(O)c1)c1c(C#N)c(N)nn1-c1ccccc1	87.2 µM	
CC(=O)C(N1CCCCC1)C(O)(C(F)(F)F)C(F)(F)F (stereo unspecified)	> 100 µM	
CN1C(=O)N(C)C2(CCN(CC(CC3OCCO3)c3ccc(F)cc3)CC2)C1=O (stereo unspecified)	> 100 µM	
COc1ccc(C(c2ccccc2C(=O)O)c2ccc(OC)c3ccccc23)c2ccccc12	29 µM	
CN(C)c1ccc(/C=C/C(=O)c2cc(C(C)(C)C)c(O)c(C(C)(C)C)c2)cc1	> 100 µM	
Cc1cc(F)c(C(=O)Nc2cccc(-c3nncn3C(C)C)n2)cc1-n1cnc(C2CC2)c1	76.1 µM	14.8 µM
COC(=O)C1OC(O[C@H]2CC[C@]3(C)[C@H]4CC=C5[C@@H]6CC(C)(C)CC[C@]6(C(=O)OC)CC[C@@]5(C)[C@]4(C)CC[C@H]3C2(C)C)C(O)C(O)C1O (stereo partly specified)	30.4 µM	
COC(=O)c1cc(-c2ccc3ccccc3c2)[nH]c(=O)c1C#N	> 100 µM	
CN(C)c1ccc(C(=S)c2ccc(N(C)C)cc2)cc1	> 100 µM	58.6 µM
Oc1ccc(NC(=S)Nc2ccccc2)cc1	> 100 µM	> 100 µM
CC[C@@]1(O)C(=O)OCc2c1cc1n(c2=O)Cc2cc3cc(Cl)ccc3nc2-1	0.459 µM	0.0415 µM
Cn1c(N/N=C/c2ccccc2)nc(-c2ccc3c(c2)OCO3)c(C#N)c1=O	> 100 µM	
COc1ccc(C=Nc2ccc(-c3nc4ccccc4s3)cc2)cc1OC	> 100 µM	
C1=N[C@]23C(=N[C@H](N=C2NCc2ccco2)[C@]24N=CNC2=N[C@H]3N=C4NCc2ccco2)N1	> 100 µM	56.8 µM
COc1cccc(/C=N/[N-]C(=O)c2ccncc2)c1[O-].[Mn+2].[OH3+]	> 100 µM	3.84 µM
OCC#CCOCC#Cc1ccccc1C#CCOCC#CCO	> 100 µM	38.8 µM
CC(C)C[C@H](CC(=O)O)C(=O)N[C@@H](Cc1c[nH]c2ccccc12)C(=O)N[C@@H](C)c1ccccc1	> 25 µM	> 25 µM
c1ccc(-c2cnc(SC(c3ccccc3)c3ccccc3)[nH]2)cc1	> 100 µM	
CCn1cnc(C[C@H](NC(=O)[C@H](CCCCNC(=O)Nc2cc(C(F)(F)F)cc(C(F)(F)F)c2)NC(=O)Nc2cc(C(F)(F)F)cc(C(F)(F)F)c2)C(=O)OC)c1	> 10 µM	6.8 µM

Structure (SMILES)	TGI	GI50
N#Cc1ncc(C(Cl)Cl)nc1Cl	> 10 µM	
COC(=O)[C@H](CNC(=O)/C=C/c1ccc(OC(C)=O)c(OC(C)=O)c1)NC(=O)/C=C/c1ccc(OC(C)=O)c(OC(C)=O)c1	> 100 µM	
Nc1nc(N)c2c(n1)NC(c1sc(Cl)nc1Cl)CC(c1ccccc1)=N2 (stereo unspecified)	24.1 µM	11.8 µM
CN1CCN(CCCOc2cccc3nc(Nc4cc(Cl)cc(Cl)c4)ccc23)CC1	3.16 µM	1.56 µM
O=[N+]([O-])c1cc(Br)cc2cc(Cl)cnc12	> 100 µM	
O=C(Nc1cccc(C(F)(F)F)c1)C(=O)C(C(=O)c1ccc(Cl)c(Cl)c1)C1OC(=O)c2ccccc21 (stereo unspecified)	> 100 µM	
Cc1ccc(S(=O)(=O)N(CC(O)COc2ccccc2)c2c(F)c(F)cc(F)c2F)cc1 (stereo unspecified)	78.6 µM	
COC1(OC)CC2C(=O)N(Cc3ccccc3)C1C(S(=O)(=O)c1ccccc1)C2C(C)S(=O)(=O)c1ccccc1 (stereo unspecified)	> 100 µM	
COc1ccc(-n2cc(-c3cc(OC)c(OC)c(OC)c3)nc2SCc2ccc(Cl)cc2)cc1OC	> 100 µM	> 100 µM
Cc1cccc2c(C3=C(c4cn(C)c5ccccc45)C(=O)NC3=O)cn(C)c12	> 25 µM	> 25 µM
O=C(Nc1ccccc1[N+](=O)[O-])/C(=N/Nc1cccc(Cl)c1)c1c(O)c2ccccc2oc1=O	> 100 µM	
NC(Cc1ccc(O)cn1)C(=O)NC(C(=O)O)c1ccccc1 (stereo unspecified)	> 100 µM	
Cc1ccc(C2(O)c3ccccc3C(=O)N(C)C2(O)c2ccc(C)cc2)cc1 (stereo unspecified)	> 100 µM	
N/C(=N\N=C\c1cc2ccccc2s1)c1cnccn1	> 100 µM	
COc1cc(/C=C/C(=O)c2cccc3ccccc23)cc(OC)c1OC	26.8 µM	
CC(=O)Nc1ccc(-c2nnc(SCC(=O)Nc3cccc(C)c3)o2)cc1	> 100 µM	
O=C1OC(CC(=O)c2ccc(F)cc2)C(Cl)=C1Cl (stereo unspecified)	34.8 µM	
CCCCCCCCSC(=O)NCCCC	> 100 µM	
O=C(O)C1C2C=CC(O2)C1C(=O)NCc1cccnc1 (stereo unspecified)	> 100 µM	
O=C(NN1C(=O)C(Cl)C1c1cccc(O)c1)c1ccccc1O (stereo unspecified)	> 100 µM	
CN(C(=O)[C@H](NC(=O)OCc1ccccc1)c1ccccc1)C1CCCCC1N1CCCC1 (stereo partly specified)	> 100 µM	
CC(=O)OC1C[C@H]2C(OC(=O)c3ccccc3)C3C4(OC(C)=O)COC4C[C@H](OC(C)=O)[C@@]3(C)C(OC(C)=O)[C@H](OC(C)=O)C(=C1C)C2(C)C (stereo partly specified)	> 100 µM	
C/C=C1\CC(C(=O)OCC)CCCCCCC1=O (stereo unspecified)	> 100 µM	
CC(=O)N[C@H](C)[C@@H](O)[C@@H](C)[C@@H]1OC(=O)/C=C/C=C(C)\C=C\[C@]2(C)C[C@@H](NS(C)(=O)=O)C=C[C@@H]2/C=C(C)/C=C/[C@H]1C	> 43.5 µM	

Structure (SMILES)	TGI	GI50
Cc1cc(OCc2nc(N)nc(N)c2-c2ccc(Cl)c(Cl)c2)ccc1[N+](=O)[O-]	20.6 µM	
NC(Cc1ccccc1)C(=O)OCN1C(=O)C2C3C=CC(C2C1=O)C1C2C(=O)N(COC(=O)C(N)Cc4ccccc4)C(=O)C2C31 (stereo unspecified)	> 100 µM	
O=C1NC(=O)C(C(=O)C(=O)Nc2cc(Cl)ccc2Cl)C(=O)N1	> 100 µM	
NCCOc1ccc(/C(=C(/Cl)c2ccccc2)c2ccccc2)cc1	27.5 µM	
Cc1ccsc1/C=N/NC1=NCCN1	> 100 µM	
CC(C)OP(=O)(OC(C)C)C(=NCCO)NNc1ccc([N+](=O)[O-])cc1	> 100 µM	
Cc1cc(=O)oc2c(C3=NN(C=O)C(c4ccccc4)C3)c(O)ccc12 (stereo unspecified)	> 100 µM	
C/C=C1/CN2CCC34C(=C(C(=O)OC)C1CC23)Nc1ccc(O)cc14 (stereo unspecified)	> 100 µM	
COc1cc2c(Oc3ccc(NC(=O)C4(C(=O)Nc5ccc(F)cc5)CC4)cc3F)ccnc2cc1OCCCN1CCOCC1	6.18 µM and > 8.07 µM	1.91 µM and 1.87 µM
CCc1cccc(C(C)C)c1NC(=O)CC1Sc2ccccc2NC1=O (stereo unspecified)	> 100 µM	
c1ccc(CN2CCC(=NN3CCCCC3)CC2)cc1	> 100 µM	
Oc1ccc2ccccc2c1CCc1c(O)ccc2ccccc12	24.9 µM	
CCOC(=O)/C=C/n1c2ccccc2c(=O)c2cc(OC)ccc21	> 100 µM	
C=CCn1c(-c2cc(C(C)(C)C)c(O)c(C(C)(C)C)c2)cs/c1=N\C(P(=O)(O)O)P(=O)(O)O	> 100 µM	
O=CC(OC(=O)c1ccccc1)C(OC(=O)c1ccccc1)C(COC(c1ccccc1)(c1ccccc1)c1ccccc1)OC(=O)c1ccccc1 (stereo unspecified)	82.2 µM	26.5 µM
O=C(O)c1cc2ccccc2c(Cc2c(O)c(C(=O)O)cc3ccccc23)c1O	> 100 µM	
CCOC(=O)c1oc2c(OC)ccc3c2c1CCC3	> 100 µM	
C=C1CCC2CC1C(C(=O)c1c[nH]c3ccccc13)=NC2(C)C (stereo unspecified)	> 100 µM	
CCN(CC)CC1CCCCN1CC(=O)N1c2cc(Cl)ccc2NC(=O)CC1C (stereo unspecified)	> 100 µM	
CC(=O)OCCOCn1c2ccccc2c2c3c(c4c5ccccc5n(COCCOC(C)=O)c4c21)C(=O)N(Cc1ccccc1)C3=O	> 100 µM	
C[C@@H](Nc1nc(N[C@H](C)C(F)(F)F)nc(-c2cccc(Cl)n2)n1)C(F)(F)F	> 100 µM	46.8 µM
COc1ccc(CN(CCN(C)C)c2ccccn2)cc1 (tested in a mixture with another compound)	> 100 µM	
C[C@@H]1C[C@H]2OC(=O)[C@@]3(C)CCC[C@@](C)([C@@H]23)[C@@]1(O)CCc1ccoc1	> 100 µM	
